In the supplement of paper PMC8728848:
The list shows a part of the results.

Tests used:
Assay in all cases: glycan array binding signal (z-score within array); higher = stronger binding
Details in all cases: glycan notation: IUPAC condensed, linker removed
[1] = biological target: Man(a1-2)Man(a1-3)[Man(a1-2)Man(a1-6)]Man
Procedure, shortened: (§1)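 Columns mapping to the same glycan were averaged after glycan names were converted to IUPAC-condensed notation. The data come from 3228 arrays in the Consortium for Functional Glycomics database, limited to those with an available protein sequence. Binding is reported as a within-array Z-score averaged across arrays of one protein sequence and across linkers.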

[2] = biological target: Man(a1-2)Man(a1-3)[Man(a1-2)Man(a1-6)]Man(a1-6)[Man(a1-2)Man(a1-2)Man(a1-3)]Man
Procedure, shortened: as §1

[3] = biological target: Man(a1-2)Man(a1-3)[Man(a1-2)Man(a1-6)]Man(a1-6)[Man(a1-2)Man(a1-2)Man(a1-3)]Man(b1-4)GlcNAc(b1-4)GlcNAc
Procedure, shortened: as §1

[4] = biological target: Man(a1-2)Man(a1-3)[Man(a1-6)]Man(a1-6)[Man(a1-2)Man(a1-3)]Man(b1-4)GlcNAc(b1-4)GlcNAc
Procedure, shortened: as §1

[5] = biological target: Man(a1-2)Man(a1-6)[Man(a1-3)]Man(a1-6)[Man(a1-2)Man(a1-2)Man(a1-3)]Man
Procedure, shortened: as §1

[6] = biological target: Man(a1-2)Man(a1-6)[Man(a1-3)]Man(a1-6)[Man(a1-2)Man(a1-2)Man(a1-3)]Man(b1-4)GlcNAc(b1-4)GlcNAc
Procedure, shortened: as §1

Man(a1-3)[Man(a1-6)]Man = biological target: Man(a1-3)[Man(a1-6)]Man
Procedure, shortened: as §1

[7] = biological target: Man(a1-3)[Man(a1-6)]Man(a1-6)[Man(a1-2)Man(a1-3)]Man(b1-4)GlcNAc(b1-4)GlcNAc
Procedure, shortened: as §1

[8] = biological target: Man(a1-3)[Man(a1-6)]Man(a1-6)[Man(a1-3)]Man
Procedure, shortened: as §1

[9] = biological target: Man(a1-3)[Man(a1-6)]Man(a1-6)[Man(a1-3)]Man(b1-4)GlcNAc(b1-4)GlcNAc
Procedure, shortened: as §1

[10] = biological target: Man(a1-3)[Man(a1-6)]Man(b1-4)GlcNAc(b1-4)GlcNAc
Procedure, shortened: as §1

[11] = biological target: Man(a1-3)[Man(a1-6)]Man(b1-4)GlcNAc(b1-4)[Fuc(a1-6)]GlcNAc
Procedure, shortened: as §1

Man(a1-6)Man = biological target: Man(a1-6)Man
Procedure, shortened: as §1

Man(b1-4)GlcNAc = biological target: Man(b1-4)GlcNAc
Procedure, shortened: as §1

MurNAc(b1-4)GlcNAc = biological target: MurNAc(b1-4)GlcNAc
Procedure, shortened: as §1

Neu5Ac(a2-3)Gal = biological target: Neu5Ac(a2-3)Gal
Procedure, shortened: as §1

[12] = biological target: Neu5Ac(a2-3)Gal(b1-3)GalNAc
Procedure, shortened: as §1

[13] = biological target: Neu5Ac(a2-3)Gal(b1-3)GalNAc(b1-3)Gal(a1-4)Gal(b1-4)Glc
Procedure, shortened: as §1

[14] = biological target: Neu5Ac(a2-3)Gal(b1-3)GalNAc(b1-4)[Neu5Ac(a2-3)]Gal(b1-4)Glc
Procedure, shortened: as §1

[15] = biological target: Neu5Ac(a2-3)Gal(b1-3)GalNAc(b1-4)[Neu5Ac(a2-8)Neu5Ac(a2-3)]Gal(b1-4)Glc
Procedure, shortened: as §1

[16] = biological target: Neu5Ac(a2-3)Gal(b1-3)GalNAc6S
Procedure, shortened: as §1

[17] = biological target: Neu5Ac(a2-3)Gal(b1-3)GlcNAc
Procedure, shortened: as §1

[18] = biological target: Neu5Ac(a2-3)Gal(b1-3)GlcNAc(b1-2)Man
Procedure, shortened: as §1

[19] = biological target: Neu5Ac(a2-3)Gal(b1-3)GlcNAc(b1-2)Man(a1-3)[GlcNAc(b1-4)][Neu5Ac(a2-3)Gal(b1-3)GlcNAc(b1-2)Man(a1-6)]Man(b1-4)GlcNAc(b1-4)GlcNAc
Procedure, shortened: as §1

[20] = biological target: Neu5Ac(a2-3)Gal(b1-3)GlcNAc(b1-2)Man(a1-3)[Neu5Ac(a2-3)Gal(b1-3)GlcNAc(b1-2)Man(a1-6)]Man(b1-4)GlcNAc(b1-4)GlcNAc
Procedure, shortened: as §1

[21] = biological target: Neu5Ac(a2-3)Gal(b1-3)GlcNAc(b1-2)[Neu5Ac(a2-3)Gal(b1-3)GlcNAc(b1-4)]Man(a1-6)[Neu5Ac(a2-3)Gal(b1-3)GlcNAc(b1-2)Man(a1-3)]Man(b1-4)GlcNAc(b1-4)GlcNAc
Procedure, shortened: as §1

[22] = biological target: Neu5Ac(a2-3)Gal(b1-3)GlcNAc(b1-3)Gal(b1-3)GlcNAc
Procedure, shortened: as §1

[23] = biological target: Neu5Ac(a2-3)Gal(b1-3)GlcNAc(b1-3)Gal(b1-4)GlcNAc
Procedure, shortened: as §1

[24] = biological target: Neu5Ac(a2-3)Gal(b1-3)GlcNAc(b1-3)GalNAc
Procedure, shortened: as §1

[25] = biological target: Neu5Ac(a2-3)Gal(b1-3)GlcNAc(b1-4)Gal(b1-4)Glc
Procedure, shortened: as §1

[26] = biological target: Neu5Ac(a2-3)Gal(b1-3)GlcNAc(b1-6)GalNAc
Procedure, shortened: as §1

[27] = biological target: Neu5Ac(a2-3)Gal(b1-3)GlcNAc6S
Procedure, shortened: as §1

[28] = biological target: Neu5Ac(a2-3)Gal(b1-3)[Fuc(a1-4)]GlcNAc
Procedure, shortened: as §1

[29] = biological target: Neu5Ac(a2-3)Gal(b1-3)[Fuc(a1-4)]GlcNAc(b1-3)Gal(b1-3)[Fuc(a1-4)]GlcNAc
Procedure, shortened: as §1

[30] = biological target: Neu5Ac(a2-3)Gal(b1-3)[Fuc(a1-4)]GlcNAc(b1-3)Gal(b1-4)[Fuc(a1-3)]GlcNAc
Procedure, shortened: as §1

[31] = biological target: Neu5Ac(a2-3)Gal(b1-3)[GlcNAc(b1-6)]GalNAc
Procedure, shortened: as §1

[32] = biological target: Neu5Ac(a2-3)Gal(b1-3)[Neu5Ac(a2-6)]GalNAc
Procedure, shortened: as §1

[33] = biological target: Neu5Ac(a2-3)Gal(b1-3)[Neu5Ac(a2-6)]GlcNAc(b1-3)[Fuc(a1-3)[Gal(b1-4)]GlcNAc(b1-6)]Gal(b1-4)Glc
Procedure, shortened: as §1

[34] = biological target: Neu5Ac(a2-3)Gal(b1-3)]Neu5Ac(a2-3)Gal(b1-4)]GlcNAc
Procedure, shortened: as §1

Neu5Ac(a2-3)Gal(b1-4)Glc = biological target: Neu5Ac(a2-3)Gal(b1-4)Glc
Procedure, shortened: as §1

[35] = biological target: Neu5Ac(a2-3)Gal(b1-4)GlcNAc
Procedure, shortened: as §1

[36] = biological target: Neu5Ac(a2-3)Gal(b1-4)GlcNAc(b1-2)Man
Procedure, shortened: as §1

[37] = biological target: Neu5Ac(a2-3)Gal(b1-4)GlcNAc(b1-2)Man(a1-3)[GlcNAc(b1-4)][Neu5Ac(a2-3)Gal(b1-4)GlcNAc(b1-2)Man(a1-6)]Man(b1-4)GlcNAc(b1-4)GlcNAc
Procedure, shortened: as §1

[38] = biological target: Neu5Ac(a2-3)Gal(b1-4)GlcNAc(b1-2)Man(a1-3)[Neu5Ac(a2-3)Gal(b1-4)GlcNAc(b1-2)Man(a1-6)]Man(b1-4)GlcNAc(b1-4)GlcNAc
Procedure, shortened: as §1

[39] = biological target: Neu5Ac(a2-3)Gal(b1-4)GlcNAc(b1-2)Man(a1-3)[Neu5Ac(a2-3)Gal(b1-4)GlcNAc(b1-2)Man(a1-6)]Man(b1-4)GlcNAc(b1-4)[Fuc(a1-6)]GlcNAc
Procedure, shortened: as §1

B1: AFCNVH (Aspergillus fumigatus) (protein)
chain: MSLRGFHTTCDTIVLKDKHILSSRCKRPDGTYSFSEIDLNDCLGNNNGKFVWGGESFVDSASQVNLALEGGEGRPMLHAQLNDWHGSVQSASVNLGECIQNEAGGLEYMHC
glycan array binding signal (z-score) [1]: -0.474 | glycan array binding signal (z-score) [2]: -0.214 | glycan array binding signal (z-score) [3]: -0.336 | glycan array binding signal (z-score) [4]: -0.503 | glycan array binding signal (z-score) [5]: -0.295 | glycan array binding signal (z-score) [6]: -0.329 | glycan array binding signal (z-score) (Man(a1-3)[Man(a1-6)]Man): -0.297 | glycan array binding signal (z-score) [7]: -0.136 | glycan array binding signal (z-score) [8]: -0.135 | glycan array binding signal (z-score) [9]: -0.432 | glycan array binding signal (z-score) [10]: -0.448 | glycan array binding signal (z-score) [11]: -0.514 | glycan array binding signal (z-score) (Man(a1-6)Man): -0.497 | glycan array binding signal (z-score) (Man(b1-4)GlcNAc): -0.3 | glycan array binding signal (z-score) (MurNAc(b1-4)GlcNAc): 2.02 | glycan array binding signal (z-score) (Neu5Ac(a2-3)Gal): -0.51 | glycan array binding signal (z-score) [12]: -0.39 | glycan array binding signal (z-score) [13]: -0.249 | glycan array binding signal (z-score) [14]: -0.416 | glycan array binding signal (z-score) [15]: -0.476 | glycan array binding signal (z-score) [16]: -0.435 | glycan array binding signal (z-score) [17]: -0.322 | glycan array binding signal (z-score) [18]: -0.278 | glycan array binding signal (z-score) [19]: -0.462 | glycan array binding signal (z-score) [20]: -0.377 | glycan array binding signal (z-score) [21]: -0.439 | glycan array binding signal (z-score) [22]: -0.367 | glycan array binding signal (z-score) [23]: 0.251 | glycan array binding signal (z-score) [24]: -0.385 | glycan array binding signal (z-score) [25]: -0.53 | glycan array binding signal (z-score) [26]: -0.367 | glycan array binding signal (z-score) [27]: -0.204 | glycan array binding signal (z-score) [28]: -0.018 | glycan array binding signal (z-score) [29]: -0.201 | glycan array binding signal (z-score) [30]: -0.305 | glycan array binding signal (z-score) [31]: -1.85 | glycan array binding signal (z-score) [32]: -0.331 | glycan array binding signal (z-score) [33]: -0.416 | glycan array binding signal (z-score) [34]: -0.242 | glycan array binding signal (z-score) (Neu5Ac(a2-3)Gal(b1-4)Glc): -0.399 | glycan array binding signal (z-score) [35]: -0.131 | glycan array binding signal (z-score) [36]: -0.453 | glycan array binding signal (z-score) [37]: 1.8 | glycan array binding signal (z-score) [38]: -0.032 | glycan array binding signal (z-score) [39]: -0.164
